# Experimental data from PubChem BioAssay AID504333 (National Center for Advancing Translational Sciences (NCATS), 2011).
# Screen size: about 360,000 compounds; about 16,000 (4.4%) were called active. This list was built around the results that the source calls inconclusive (neither active nor inactive); the mix of calls is not that of the screen. Calls follow the shape of the dose curve; as a rule, active = well fitted inhibition curve with a large enough effect; inconclusive = small, poorly fitted or top-dose-only effect; inactive = no such curve, though single readings can be large or run the other way. A potency beside an inconclusive call is a rough fit, not a confirmed value.
# Target: Bromodomain adjacent to zinc finger domain protein 2B (Homo sapiens) (UniProt Q9UIF8)
# Chain of UniProt Q9UIF8 (Q9UIF8 whole entry, looked up, the tested form may be a part): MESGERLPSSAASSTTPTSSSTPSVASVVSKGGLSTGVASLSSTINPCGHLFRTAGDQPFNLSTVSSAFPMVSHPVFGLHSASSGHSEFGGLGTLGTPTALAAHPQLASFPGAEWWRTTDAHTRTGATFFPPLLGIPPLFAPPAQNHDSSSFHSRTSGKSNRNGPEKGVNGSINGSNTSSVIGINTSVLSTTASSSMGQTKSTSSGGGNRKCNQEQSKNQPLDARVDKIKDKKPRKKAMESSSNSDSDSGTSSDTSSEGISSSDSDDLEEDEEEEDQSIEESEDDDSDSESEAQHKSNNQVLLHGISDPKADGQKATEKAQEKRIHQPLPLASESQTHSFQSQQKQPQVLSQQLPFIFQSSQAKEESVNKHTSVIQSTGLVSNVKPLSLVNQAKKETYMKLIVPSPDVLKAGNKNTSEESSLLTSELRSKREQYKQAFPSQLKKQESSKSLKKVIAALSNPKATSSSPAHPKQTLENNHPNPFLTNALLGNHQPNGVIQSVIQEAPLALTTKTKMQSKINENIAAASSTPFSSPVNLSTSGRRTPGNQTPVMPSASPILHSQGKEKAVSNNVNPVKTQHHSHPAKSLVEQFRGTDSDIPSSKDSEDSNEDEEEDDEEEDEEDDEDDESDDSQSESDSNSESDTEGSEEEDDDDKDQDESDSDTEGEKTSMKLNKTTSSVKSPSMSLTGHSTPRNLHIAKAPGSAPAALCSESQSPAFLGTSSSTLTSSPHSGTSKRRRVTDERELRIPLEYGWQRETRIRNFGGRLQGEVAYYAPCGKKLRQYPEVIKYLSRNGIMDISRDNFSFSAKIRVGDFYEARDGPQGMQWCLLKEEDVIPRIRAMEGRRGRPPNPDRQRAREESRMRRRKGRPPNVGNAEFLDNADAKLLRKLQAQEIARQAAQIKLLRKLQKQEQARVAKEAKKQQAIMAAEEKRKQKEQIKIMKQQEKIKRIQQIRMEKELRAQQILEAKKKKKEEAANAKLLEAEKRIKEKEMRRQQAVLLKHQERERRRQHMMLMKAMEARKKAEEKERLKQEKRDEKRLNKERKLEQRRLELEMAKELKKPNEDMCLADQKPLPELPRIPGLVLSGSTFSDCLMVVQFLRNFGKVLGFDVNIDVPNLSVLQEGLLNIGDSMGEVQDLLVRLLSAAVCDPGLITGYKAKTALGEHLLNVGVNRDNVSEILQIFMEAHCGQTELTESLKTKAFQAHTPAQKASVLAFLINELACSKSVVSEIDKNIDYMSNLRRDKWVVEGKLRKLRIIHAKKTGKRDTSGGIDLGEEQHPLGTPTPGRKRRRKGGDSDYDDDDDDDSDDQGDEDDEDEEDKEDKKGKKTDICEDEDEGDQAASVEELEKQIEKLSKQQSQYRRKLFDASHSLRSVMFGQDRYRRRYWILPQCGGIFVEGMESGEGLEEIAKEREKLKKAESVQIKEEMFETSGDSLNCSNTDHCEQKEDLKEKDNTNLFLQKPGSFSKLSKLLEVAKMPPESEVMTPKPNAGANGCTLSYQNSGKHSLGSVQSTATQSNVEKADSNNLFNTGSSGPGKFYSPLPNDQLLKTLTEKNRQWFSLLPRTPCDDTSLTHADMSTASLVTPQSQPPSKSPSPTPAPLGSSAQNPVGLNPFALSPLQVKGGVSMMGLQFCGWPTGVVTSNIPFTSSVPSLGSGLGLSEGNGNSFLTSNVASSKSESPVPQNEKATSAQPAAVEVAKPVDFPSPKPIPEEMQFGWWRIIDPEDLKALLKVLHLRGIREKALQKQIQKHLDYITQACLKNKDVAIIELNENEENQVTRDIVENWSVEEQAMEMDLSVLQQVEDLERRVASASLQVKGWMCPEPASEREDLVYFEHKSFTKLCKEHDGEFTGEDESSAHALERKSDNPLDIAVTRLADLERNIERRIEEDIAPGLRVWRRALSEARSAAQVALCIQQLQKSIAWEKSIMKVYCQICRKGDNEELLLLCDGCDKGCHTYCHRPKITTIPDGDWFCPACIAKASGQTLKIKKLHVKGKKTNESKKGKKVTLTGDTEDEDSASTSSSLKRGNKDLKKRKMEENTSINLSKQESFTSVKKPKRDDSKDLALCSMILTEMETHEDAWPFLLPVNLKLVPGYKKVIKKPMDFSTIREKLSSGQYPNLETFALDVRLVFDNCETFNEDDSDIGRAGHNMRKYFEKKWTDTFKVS
# Test: qHTS Assay for Inhibitors of BAZ2B; also: nearly all actives have a fitted effect of over 60% in size
# Settings: AlphaScreen BAZ2B-H3K14Ac peptide displacement; activity change, negative = inhibition: at 114 µM (top of the series) unless noted
# Outline: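 Compounds, titrated to a top concentration of 110 uM, were incubated 30 min at room temperature with preformed BAZ2B/acetyl-K14 H3 peptide complex (50 nM each). Proximity signal was measured by AlphaScreen after 20 min with beads.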
# % is scaled to controls: 0 for no effect and ±100 for the full control effect; potency is read from the fitted curve at half-maximal effect; tags tell the direction and shape of the fitted curve.
SMILES,Potency,"activity change, negative = inhibition"
CC1CCc2[nH]nc(C(=O)O)c2C1 (configuration not stated),"inconclusive: 89.1 µM [inhibitor, single point]",
NC(=O)c1c(NC(=O)c2ccccc2C(=O)O)sc2c1CCCC2,"inconclusive: 89.1 µM [inhibitor, single point]",
CC1(C)Cc2ccccc2C(/C(=N\Nc2cccc(Cl)c2)C(N)=O)=N1,active: 25.1 µM,
CC1=NOC(=O)/C1=C\c1ccc(-c2ccc(Br)cc2)o1,active: 11.2 µM,
CCN(CC)c1ccc(NC(=O)c2cc3c(OC)cccc3[nH]2)cc1,active: 20 µM,
Cc1c(N2C(=O)/C(=C3\C(=O)N(CC(=O)O)c4ccccc43)SC2=S)c(=O)n(-c2ccccc2)n1C,active: 79.4 µM,
COc1ccc(CCNC(=O)c2cc3sc(Cl)cc3n2C)cc1OC,"inconclusive: 50.1 µM [inhibitor, partial curve]",
COc1ccc(Nc2nc3c(C)cccn3c(=O)c2C=NCc2ccccc2)cc1,"inconclusive: 89.1 µM [inhibitor, single point]",
COC(=O)c1cccc(Nc2c(-c3ccc(OC)cc3)nc3nc[nH]n23)c1,"inconclusive: 39.8 µM [inhibitor, partial curve]",
CCOc1ccccc1NC(=O)C1CCN(S(=O)(=O)c2c(C)noc2C)CC1,,inactive: -7.18%
COc1cc(/C=C2\SC(=S)N(Nc3ccccc3)C2=O)ccc1O,active: 39.8 µM,
COc1ccc(OC)c(Nc2nc(-c3sc(NC(=O)CC(C)C)nc3C)cs2)c1,"inconclusive: 50.1 µM [inhibitor, partial curve]",
O=C1CN(C(=O)COC(=O)c2cccs2)c2ccccc2N1,,inactive: 2.23%
Cc1ccc2c(c1)NC(=O)C(CC(=O)NCCCN1CCCC1=O)O2 (configuration not stated),"inconclusive: 89.1 µM [inhibitor, single point]",
Cc1c(Cl)ccc2c1NC(=O)[C@]21[C@@H]2C(=O)N(Cc3ccccc3)C(=O)[C@@H]2[C@@H]2CCCN21,,inactive: -23.4%
COc1ccc(-c2nc(C#N)c(N3CCCCCC3)o2)cc1,active: 28.2 µM,
COc1cc(OC)c2c(C)c(CC(=O)NCCc3ccccc3OC)c(=O)oc2c1,,inactive: -5.02%
CCOC(=O)c1c(C)[nH]c(CCC(=O)Nc2c(Cl)cc(OC)cc2OC)c1C,"inconclusive: 89.1 µM [inhibitor, single point]",
Cc1ccc(C(=O)O)cc1-n1c(C)ccc1-c1ccccc1,"inconclusive: 3.16 µM [inhibitor, full curve, poor fit]",
CCOC(=O)c1c(CN2CCN(c3ccccc3)CC2)oc2ccc(O)cc12,"inconclusive: 44.7 µM [inhibitor, partial curve]",
C#CCOCCOCCOCCNc1nc(N2CCN(C(=O)[C@H]([C@@H](C)CC)n3cc([C@@H](N)CC(C)C)nn3)CC2)nc(N2CCN(C(=O)[C@H](CCCCN)n3cc([C@@H](N)CC(C)C)nn3)CC2)n1,"inconclusive: 79.4 µM [inhibitor, single point]",
CC(=O)c1cc(-c2ccccc2)n(CCC(=O)NC2CCCCCCC2)c1C,active: 50.1 µM,
Cc1ccc(C(C)C)c(OCCCNCc2cccnc2)c1,,inactive: -34.4%
O=C1c2cccc3cccc(c23)C(=O)N1CC1CCN(CC(O)COc2ccc3ccccc3c2)CC1 (configuration not stated),"inconclusive: 50.1 µM [inhibitor, partial curve]",

SMILES,Potency,"activity change, negative = inhibition"
CN(C)c1ccc(/C=C/c2ccc3ccccc3n2)cc1,active: 50.1 µM,
COc1ccc(-c2onc(C)c2C)cc1S(=O)(=O)NCCc1ccco1,active: 50.1 µM,
Cc1ccc(CNc2nc(C)cs2)cc1,"inconclusive: 89.1 µM [inhibitor, single point]",
CC1CCCC(C)N1S(=O)(=O)c1ccc(NC(=O)CNCC2CCCO2)cc1 (configuration not stated),active: 56.2 µM,
Cc1cc(C(=O)Cn2nc(C(=O)O)c3ccccc3c2=O)c(C)n1-c1ccc(OC(F)F)cc1,"inconclusive: 89.1 µM [inhibitor, partial curve]",
COc1ccc(CN(CCN)C2CC(C)N(C)CC2C)cc1 (configuration not stated),"inconclusive: 89.1 µM [inhibitor, single point]",
Cc1ccnc(NC(c2cccc(O)c2)c2ccc3ccc(C)nc3c2O)c1 (configuration not stated),"inconclusive: 20 µM [inhibitor, full curve]",
CCc1ccccc1NC(=S)N(CCN1CCCCCC1)Cc1ccco1,"inconclusive: 50.1 µM [inhibitor, partial curve]",
Cc1cccnc1CN1CCN(Cc2nc(C(c3ccccc3)c3ccccc3)no2)CC1,"inconclusive: 14.1 µM [inhibitor, full curve]",
CCn1c(SCC(=O)NC2CCCCC2)nnc1-c1ccccn1,"inconclusive: 79.4 µM [inhibitor, partial curve, poor fit]",
O=C1Nc2ccccc2N=C(c2ccccc2)C1Br (configuration not stated),"inconclusive: 79.4 µM [inhibitor, single point]",
COc1ccc(-c2cnc(SCC(=O)Nc3nc(C(C)(C)C)cs3)n2Cc2ccco2)cc1,"inconclusive: 22.4 µM [inhibitor, full curve]",
Oc1ccc2ccccc2c1CNc1cnc2ccccc2c1,"inconclusive: 39.8 µM [inhibitor, partial curve]",
O=C(Cn1ccnc1)c1ccc(O)c(O)c1,active: 56.2 µM,
CC(C)[C@@H](N)C(=O)N/N=C/c1ccc2ncccc2c1,"inconclusive: 79.4 µM [inhibitor, single point]",
CC(=O)c1ccc(N(CC(=O)NC2CCCCC2)C(=O)CNC(=O)c2cccs2)cc1,,inactive: -2.64%
CC(C)OC(=O)CCCNc1ccc([N+](=O)[O-])cc1[N+](=O)[O-],"inconclusive: 50.1 µM [inhibitor, partial curve]",
Cc1cc(S(=O)(=O)N2CCN(c3ccccn3)CC2)ccc1F,"inconclusive: 89.1 µM [inhibitor, single point]",
COc1ccc(Br)cc1CNC(=O)Cc1cccs1,"inconclusive: 100 µM [inhibitor, single point]",
COc1ccc(C=C2c3ccccc3C(=O)c3ccccc32)c(OC)c1,active: 12.6 µM,
COc1ccccc1NC(=O)CSCc1cc(=O)c2cccc(Cl)c2[nH]1,,inactive: 2.16%
COc1cccc(C2c3[nH]c4ccccc4c3CCN2Cc2ncc[nH]2)c1 (configuration not stated),"inconclusive: 44.7 µM [inhibitor, partial curve]",
COc1ccc(OC)c(C2CC(=O)Nc3c2c(=O)n(C)c2ncnn32)c1 (configuration not stated),"inconclusive: 89.1 µM [inhibitor, single point]",
O=c1c2ccccc2nc(-c2ccccc2)n1Cc1ccccc1,,inactive: -2.81%

SMILES,Potency,"activity change, negative = inhibition"
CCOC(=O)C1=C(c2ccccc2)NC(=S)NC1c1ccc(Cl)c([N+](=O)[O-])c1 (configuration not stated),"inconclusive: 70.8 µM [inhibitor, single point]",
O=C1Nc2ccccc2C(=O)C1(Cl)Cc1ccccc1 (configuration not stated),active: 79.4 µM,
CC(C)N(C1=N/C(=C\c2ccco2)C(=O)N1c1ccccc1)C(C)C,,inactive: -4.23%
COc1ccc(CNC(=O)[C@H](Cc2ccccc2)NC(=O)C2CCN(C(=O)[C@H](C)N)CC2)cc1,,inactive: 4.89%
Cc1ccc(NC(=O)CSc2nncn2C)c(C)c1,,inactive: 2.33%
Cc1cccc(-n2c(C)cc(/C=N/NC(N)=S)c2C)c1,"inconclusive: 50.1 µM [inhibitor, partial curve]",
O=C(OCc1nc(-c2ccccc2Cl)no1)c1ccco1,,inactive: 33%
CC(=O)N1CCC2(CC1)C/C(=N\NC(=S)Nc1ccccc1C)c1cc(O)ccc1O2,,inactive: -31%
Cc1c(-n2c(-c3ccccc3Cl)n[nH]c2=S)c(=O)n(-c2ccccc2)n1C,"inconclusive: 89.1 µM [inhibitor, single point]",
COc1ccc(NC(=O)CSC2=Nc3ccccc3C3=NC(CCC(=O)NC4CCCCC4)C(=O)N23)cc1Cl (configuration not stated),,inactive: -25.1%
COc1ccc(-c2noc(-c3nnn(-c4ccc(C)cc4C)c3C)n2)cc1,,inactive: -1.29%
COc1ccc(Cn2ccnc2SCC(=O)Nc2ccccc2F)cc1,"inconclusive: 39.8 µM [inhibitor, partial curve]",
CNc1ccc(Br)cc(C(=O)/C=C/c2cccc(Cl)c2Cl)c1=O,"inconclusive: 11.2 µM [inhibitor, full curve, poor fit]",
Cc1c(CN2CCCCC2)c(O)n(CCO)c(=O)c1C#N,"inconclusive: 79.4 µM [inhibitor, partial curve]",
O=C(NC(=S)N1CCN(c2ccc(Cl)cc2[N+](=O)[O-])CC1)c1ccco1,"inconclusive: 44.7 µM [inhibitor, partial curve]",
O=C(CN1CCN(C2CCCCC2)CC1)c1c[nH]c2ccccc12,"inconclusive: 39.8 µM [inhibitor, single point]",
CCOc1ccccc1Oc1c(C)oc2c(CN3CCN(CCO)CC3)c(O)ccc2c1=O,,inactive: -11.1%
Cc1onc(-c2ccccc2)c1C(=O)NCc1ccco1,,inactive: 8.14%
CCOC(=O)c1ccc(Nc2c(-c3ccc(N(C)C)cc3)nc3nc[nH]n23)cc1,"inconclusive: 10 µM [inhibitor, partial curve]",
OCCCNc1nccc(-c2cc(Nc3cccc(Cl)c3)ncn2)n1,"inconclusive: 100 µM [inhibitor, single point]",
CN(C)CCCN(C(=O)c1ccc2ccccc2c1)c1nc2cc3c(cc2s1)OCO3,"inconclusive: 39.8 µM [inhibitor, partial curve]",
COc1ccccc1NC(=O)CSc1nnc2c(n1)[nH]c1ccccc12,,inactive: -11.9%
COc1cc(OC)c(OC)cc1CNC(=O)c1cccc(S(=O)(=O)N2CCc3ccccc3C2)c1,"inconclusive: 70.8 µM [inhibitor, single point]",
COc1ccc(-c2cn(Cc3ccc4c(c3)C(=O)c3ccccc3C4=O)nn2)cc1,"inconclusive: 3.55 µM [inhibitor, full curve, poor fit]",
